Sequences with one replicate were seen in a single cluster, so their values are uncertain.
The sequences below were run on ATP (assay: switch fluorescence ratio, 500 uM ATP over buffer (Cy3 cluster intensity, sum of 5 cycles each) (fold (ratio)); higher = stronger signal-on switching upon ATP binding; sequences stand for … in TCGTCGGCAGCGTCAGATGTGTATAAGAGACAGTTTTTTTTTTTTTTTTTTTTTTTTT…TC). Conditions: aptamer strand: ATP DNA aptamer (quencher-CACCTGGGGGAGTATTGCGGAGGAAGG + anchor), 100 nM annealed; ATP concentration: 500 uM; one replicate.
Method in brief: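 The fluorescence ratio divides summed target-cycle Cy3 intensity by summed buffer-cycle Cy3 intensity for each cluster and is averaged per switch-domain sequence. Cy3-labelled switching-strand clusters on a modified Illumina MiSeq flow-cell were annealed to 100 nM quencher-labelled ATP aptamer, then imaged in selection buffer and again after 15 min with 500 uM ATP at 22 °C. Five such cycles were run, with NaOH stripping and re-annealing between them, and clusters outside 100-1000 RFU were excluded.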
GACGGTGCTG showed a switch fluorescence ratio of 1.07. Work on CGGACTAAAA yielded a switch fluorescence ratio of 1.05. For CGGGAAAGAA, the switch fluorescence ratio was 1.02. GATATTGCGC gave a switch fluorescence ratio of 0.99. AATAGTGGCG was tested, and the switch fluorescence ratio was 0.964. GACAGGTTGC was tested, and the switch fluorescence ratio was 0.985. GCATCGAGGT was tested, and the switch fluorescence ratio was 1.02. CAGGGGTCGA showed a switch fluorescence ratio of 0.99. GAAGAAGCTT was tested, and the switch fluorescence ratio was 1.01. Sequence GTGTCGCGCT has a switch fluorescence ratio of 1. CGGGGGCCGC was tested, and the switch fluorescence ratio was 0.961. TTTTAAGTAC gave a switch fluorescence ratio of 1.18. Work on GATCTTCAGT yielded a switch fluorescence ratio of 0.986. GACCAAAGGC was tested, and the switch fluorescence ratio was 1.04. AAGCCCTTAC gave a switch fluorescence ratio of 1.66. Work on GAAGAGAGAG yielded a switch fluorescence ratio of 0.949. AATAAAATGC showed a switch fluorescence ratio of 0.98. With CCGTGCCATA the switch fluorescence ratio was 2.12. For TCGCATATGT, the switch fluorescence ratio was 1.46. Work on GATCATTACG yielded a switch fluorescence ratio of 1.04. GTCGGGAGTC was tested, and the switch fluorescence ratio was 0.968. AAAGATTCGT showed a switch fluorescence ratio of 1.02. GAATAGCTGC showed a switch fluorescence ratio of 1.03. CTCACCGCGG showed a switch fluorescence ratio of 1.04. Work on AGAGTTGTTC yielded a switch fluorescence ratio of 1.02. CCCGGTGGTT was tested, and the switch fluorescence ratio was 1.09. For TCGCTGCGTG, the switch fluorescence ratio was 1.01. CATAACAAAG showed a switch fluorescence ratio of 0.975. TCGAGCTGAC showed a switch fluorescence ratio of 1.94. Work on GATCAAGATG yielded a switch fluorescence ratio of 1.01. CTGGAACAAA showed a switch fluorescence ratio of 1.02. GTTTTGAGTA showed a switch fluorescence ratio of 1.01. Sequence GCATATAGCA has a switch fluorescence ratio of 0.965. In the case of CGTGTAATGA, the switch fluorescence ratio is reported as 0.987. In the case of TGTATGGGT, the switch fluorescence ratio is reported as 0.973. In the case of TGACTGCCCC, the switch fluorescence ratio is reported as 1.09. Work on GTAGTAGTCC yielded a switch fluorescence ratio of 0.969. In the case of AAGGTGTCAA, the switch fluorescence ratio is reported as 0.993. AGGGAGATTA was tested, and the switch fluorescence ratio was 1.03. TTCTCGTAAT showed a switch fluorescence ratio of 1.33. For TATCTGTACC, the switch fluorescence ratio was 0.977. CCAGGTATAG gave a switch fluorescence ratio of 1.16. GGGTATAAGT gave a switch fluorescence ratio of 0.979. Work on TTGAATAGGG yielded a switch fluorescence ratio of 0.996. In the case of GAAGACTTGG, the switch fluorescence ratio is reported as 1.04. CAAAAACCTC showed a switch fluorescence ratio of 1.14. CGTGTTGAA showed a switch fluorescence ratio of 0.935. In the case of GGAATAGGTT, the switch fluorescence ratio is reported as 0.995. In the case of CAGAAATTTG, the switch fluorescence ratio is reported as 1.03. GTTATCTTCT was tested, and the switch fluorescence ratio was 1.01. Sequence GCCGTCCGAG has a switch fluorescence ratio of 1.01. TGGTCGACCG showed a switch fluorescence ratio of 0.983. CTATGGAGTC gave a switch fluorescence ratio of 0.992. For GACGAGTCTA, the switch fluorescence ratio was 1.01. GTTGTAAGAG gave a switch fluorescence ratio of 1.02. For AGGCATGGGG, the switch fluorescence ratio was 0.992. Sequence ACCCTGCCGC has a switch fluorescence ratio of 1.41. Work on GCAATGCAGA yielded a switch fluorescence ratio of 1.08. Work on GTATCTATCC yielded a switch fluorescence ratio of 1.03. Sequence TGTATCTTCC has a switch fluorescence ratio of 2.66. TCCCGGTTCT showed a switch fluorescence ratio of 0.998. In the case of TTCTTTTTTC, the switch fluorescence ratio is reported as 0.976. Work on ATTTATCAGT yielded a switch fluorescence ratio of 0.952. Work on ATATAAACGA yielded a switch fluorescence ratio of 1.06. ATGGTGGACA showed a switch fluorescence ratio of 0.973. CAGTTGCAAA was tested, and the switch fluorescence ratio was 0.978. Sequence TCGTTCGGCG has a switch fluorescence ratio of 0.999. Work on AATGGGCTCT yielded a switch fluorescence ratio of 0.98. CAAAGGGTAT was tested, and the switch fluorescence ratio was 0.956. TCGAACCTC showed a switch fluorescence ratio of 1.04. GGAACCCATC showed a switch fluorescence ratio of 1.03. TAATAGAATC was tested, and the switch fluorescence ratio was 0.975. With TTACCGAGTA the switch fluorescence ratio was 1.02. In the case of GATTGGGATT, the switch fluorescence ratio is reported as 0.95. CCCCGCACGT gave a switch fluorescence ratio of 6.39. Work on ACGCCATGCT yielded a switch fluorescence ratio of 1.15. Sequence TAGCCCGTTC has a switch fluorescence ratio of 0.999. In the case of TCGTTATGAA, the switch fluorescence ratio is reported as 0.994. In the case of TTATATGAAG, the switch fluorescence ratio is reported as 1.03. AAGTCAGAAG gave a switch fluorescence ratio of 1.02. Sequence TGTTCGT has a switch fluorescence ratio of 0.98. For GTAAGTAGGC, the switch fluorescence ratio was 1.1. For CCATCCTAT, the switch fluorescence ratio was 1.01. With TTGACATCGC the switch fluorescence ratio was 1.04. TGTAGGCAAG showed a switch fluorescence ratio of 0.974. For CTTCCGTCCA, the switch fluorescence ratio was 2.3. GCGAGAGGAA was tested, and the switch fluorescence ratio was 1.01. Sequence TATTTGCGAA has a switch fluorescence ratio of 0.977. Sequence ACTCACAGTT has a switch fluorescence ratio of 1.21. In the case of CATTAATGGT, the switch fluorescence ratio is reported as 1.01. Sequence GGGACTGGGC has a switch fluorescence ratio of 1.06. Sequence TCCGCATCA has a switch fluorescence ratio of 1.01. Sequence CTGTCTAAGT has a switch fluorescence ratio of 1.03. AAGAGTTAGC gave a switch fluorescence ratio of 1.15. TGCGGTGCGT was tested, and the switch fluorescence ratio was 1.01. CTTTGTTAGC gave a switch fluorescence ratio of 1.37. Work on AAGTGCAGTC yielded a switch fluorescence ratio of 1.08. ACGGCGTCGT showed a switch fluorescence ratio of 0.995. In the case of GAGGGGGCAG, the switch fluorescence ratio is reported as 1.01. GGGCAATCCA gave a switch fluorescence ratio of 0.994.

Reference: the supplement of paper PMC10126150
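Note: ATP exposure 15 min at 22 °C before imaging.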
